# Measured values reported in a collection of fitness landscapes (doi:10.1126/science.1257360).
# The other results are listed elsewhere or left out.
# B1: PhoQ; a variant is named by its letters at X, in order, P23837 (parent)
# chain: MKKLLRLFFPLSLRVRFLLATAAVVLVLSLAYGMVALIGYSVSFDKTTFRLLRGESNLFYTLAKWENNKLHVELPENIDKQSPTMTLIYDENGQLLWAQRDVPWLMKMIQPDWLKSNGFHEIEADVNDTSLLLSGDHSIQQQLQEVREDDDDAEMTHSVAVNVYPATSRMPKLTIVVVDTIPVELKSSYMVWSWFIYVLSANLLLVIPLLWVAAWWSLRPIEALAKEVRELEEHNRELLNPATTRELTSLVRNLNRLLKSERERYDKYRTTLTDLTHSLKTPLXXLQXXLRSLRSEKMSVSDAEPVMLEQISRISQQIGYYLHRASMRGGTLLSRELHPVAPLLDNLTSALNKVYQRKGVNISLDISPEISFVGEQNDFVEVMGNVLDNACKYCLEFVEISARQTDEHLYIVVEDDGPGIPLSKREVIFDRGQRVDTLRPGQGVGLAVAREITEQYEGKIVAGESMLGGARMEVIFGRQHSAPKDE
# Variants of: B1
# Experiment: enrichment ratio after two sorts for PhoP signalling (ratio (wild type AVST 3.29)); higher = more functional
# Settings: with PhoP (E. coli)
row,Variant,enrichment ratio
1,YFIN,≤ 0.25
2,FKEK,≤ 0.25
3,IPSM,≤ 0.25
4,KTSP,≤ 0.25
5,WPFN,≤ 0.25
6,AGSL,10.4
7,PQYH,≤ 0.25
8,YIFQ,≤ 0.25
9,RGAG,≤ 0.25
10,MMSC,≤ 0.25
11,LFRD,≤ 0.25
12,HSAF,≤ 0.25
13,LPNK,≤ 0.25
14,IRYC,≤ 0.25
15,PQKA,≤ 0.25
16,FCAR,≤ 0.25
17,IYVF,≤ 0.25
18,AKAL,11.1
19,QIVD,≤ 0.25
20,LNNR,≤ 0.25
21,NLPI,≤ 0.25
22,MSSE,≤ 0.25
23,RFGE,≤ 0.25
24,HSCS,≤ 0.25

row,Variant,enrichment ratio
1,YGCR,≤ 0.25
2,SEEF,≤ 0.25
3,IWFE,≤ 0.25
4,GLKH,≤ 0.25
5,PPYN,≤ 0.25
6,ETLF,≤ 0.25
7,DNLW,≤ 0.25
8,EPTH,≤ 0.25
9,RQDV,0.887
10,SGRG,≤ 0.25
11,TSAR,≤ 0.25
12,YVFS,≤ 0.25
13,TNSI,15.8
14,QCWI,37.7
15,VYEQ,≤ 0.25
16,IWHD,≤ 0.25
17,MKSK,≤ 0.25
18,MFQR,≤ 0.25
19,KIEG,≤ 0.25
20,FWVD,≤ 0.25
21,VHMS,≤ 0.25
22,RAVL,≤ 0.25
23,LIHN,≤ 0.25
24,DFFN,≤ 0.25

row,Variant,enrichment ratio
1,AQIP,≤ 0.25
2,HSKE,≤ 0.25
3,YPFD,≤ 0.25
4,PIAI,≤ 0.25
5,YGCE,≤ 0.25
6,VDNG,≤ 0.25
7,SWPQ,≤ 0.25
8,LMFL,≤ 0.25
9,YFRH,0.332
10,IWLI,≤ 0.25
11,RRGA,≤ 0.25
12,DNTD,≤ 0.25
13,INSF,≤ 0.25
14,QAYG,8.22
15,GARN,≤ 0.25
16,IRLV,≤ 0.25
17,FADH,≤ 0.25
18,LQPQ,≤ 0.25
19,EMPN,≤ 0.25
20,IRDV,≤ 0.25
21,IDPI,≤ 0.25
22,RCNH,≤ 0.25
23,LSAY,≤ 0.25
24,EMRA,≤ 0.25

row,Variant,enrichment ratio
1,DVRF,≤ 0.25
2,YLCW,≤ 0.25
3,EELR,≤ 0.25
4,ARAQ,≤ 0.25
5,NFAH,≤ 0.25
6,RLEL,≤ 0.25
7,IEID,≤ 0.25
8,LNKD,≤ 0.25
9,EVGR,≤ 0.25
10,WLSW,≤ 0.25
11,MVCK,2.16
12,AWVI,0.484
13,NGPV,≤ 0.25
14,FMAR,≤ 0.25
15,ANRH,≤ 0.25
16,MTAE,≤ 0.25
17,FFKW,≤ 0.25
18,YHKK,≤ 0.25
19,WRPV,≤ 0.25
20,MGRF,≤ 0.25
21,NWVC,≤ 0.25
22,SWEL,≤ 0.25
23,PKNW,≤ 0.25
24,VGEW,≤ 0.25

row,Variant,enrichment ratio
1,PAQS,≤ 0.25
2,QYGN,≤ 0.25
3,DWPD,≤ 0.25
4,GYSM,≤ 0.25
5,AKYC,0.363
6,YKDG,≤ 0.25
7,MHNA,≤ 0.25
8,DYMT,≤ 0.25
9,SIHP,≤ 0.25
10,MRHD,≤ 0.25
11,DWMV,≤ 0.25
12,LGKA,≤ 0.25
13,LAHL,5.85
14,PSER,≤ 0.25
15,SLRI,≤ 0.25
16,AVFF,≤ 0.25
17,FDRD,≤ 0.25
18,IGKT,≤ 0.25
19,MEGC,≤ 0.25
20,EPYF,≤ 0.25
21,GFLE,≤ 0.25
22,MAIF,≤ 0.25
23,EEDP,≤ 0.25
24,PKCR,≤ 0.25

row,Variant,enrichment ratio
1,SPCS,≤ 0.25
2,HARF,≤ 0.25
3,LGHQ,≤ 0.25
4,SDKY,≤ 0.25
5,MMWW,≤ 0.25
6,PVMA,≤ 0.25
7,YSDF,≤ 0.25
8,RYDM,≤ 0.25
9,KTMV,≤ 0.25
10,STAF,7.65
11,TETW,4.76
12,REFG,≤ 0.25
13,KETP,≤ 0.25
14,ITMQ,1.8
15,MFEY,≤ 0.25
16,KSGG,≤ 0.25
17,VEKI,≤ 0.25
18,PYHE,≤ 0.25
19,NDCF,≤ 0.25
20,YFNG,≤ 0.25
21,WKFD,≤ 0.25
22,IYWT,≤ 0.25
23,RNGA,≤ 0.25
24,SVWQ,≤ 0.25

row,Variant,enrichment ratio
1,KGDM,≤ 0.25
2,NYQE,≤ 0.25
3,YLMI,≤ 0.25
4,IEQI,≤ 0.25
5,IPWY,≤ 0.25
6,HDPN,≤ 0.25
7,NPKV,≤ 0.25
8,LQTD,≤ 0.25
9,PWVQ,≤ 0.25
10,MYHL,≤ 0.25
11,SKSQ,1.28
12,EMYM,≤ 0.25
13,HYCI,≤ 0.25
14,PWNI,≤ 0.25
15,VARI,≤ 0.25
16,RSGP,≤ 0.25
17,ASDC,≤ 0.25
18,YYTW,≤ 0.25
19,LAGV,≤ 0.25
20,EHCP,≤ 0.25
21,NWDN,≤ 0.25
22,RGHI,≤ 0.25
23,ATVS,2.56
24,TVTN,4.67

row,Variant,enrichment ratio
1,KLPR,≤ 0.25
2,SDSE,≤ 0.25
3,PRAQ,≤ 0.25
4,QPTT,≤ 0.25
5,IFWA,≤ 0.25
6,VDWT,≤ 0.25
7,DCNG,≤ 0.25
8,SYFN,≤ 0.25
9,AVFH,≤ 0.25
10,KLAS,≤ 0.25
11,HYQF,≤ 0.25
12,NFIW,≤ 0.25
13,RLIV,≤ 0.25
14,KDIE,≤ 0.25
15,QVVG,≤ 0.25
16,ENTC,≤ 0.25
17,VVRW,≤ 0.25
18,QFRP,≤ 0.25
19,NSRT,≤ 0.25
20,ACLS,6.09
21,FYSN,≤ 0.25
22,AWMH,≤ 0.25
23,SSYR,≤ 0.25
24,VMEW,≤ 0.25

row,Variant,enrichment ratio
1,WNDK,≤ 0.25
2,IMDS,≤ 0.25
3,SYDR,≤ 0.25
4,DNMN,≤ 0.25
5,SWHN,≤ 0.25
6,FPYM,≤ 0.25
7,KFGP,≤ 0.25
8,SLPL,2.37
9,AQFY,≤ 0.25
10,SMFT,0.876
11,IAYC,≤ 0.25
12,KNRC,≤ 0.25
13,MQFT,10.8
14,SRHP,≤ 0.25
15,YDWW,≤ 0.25
16,QQLF,≤ 0.25
17,EGLV,1.8
18,VYGQ,≤ 0.25
19,TRHF,≤ 0.25
20,KNSF,≤ 0.25
21,RMCP,≤ 0.25
22,KRVV,≤ 0.25
23,PCST,≤ 0.25
24,HHLW,≤ 0.25

row,Variant,enrichment ratio
1,RDLA,1.12
2,VAGL,1.62
3,GACV,≤ 0.25
4,DPQQ,≤ 0.25
5,RIQP,≤ 0.25
6,SIEH,≤ 0.25
7,HFNG,≤ 0.25
8,DHAA,≤ 0.25
9,NEEA,≤ 0.25
10,GLLP,≤ 0.25
11,TQHF,16.2
12,WDFL,≤ 0.25
13,YFEY,≤ 0.25
14,ESGT,≤ 0.25
15,RWTV,≤ 0.25
16,HTKR,≤ 0.25
17,DHGR,≤ 0.25
18,MCRE,≤ 0.25
19,ARWF,≤ 0.25
20,MDPL,≤ 0.25
21,KRYG,≤ 0.25
22,EENK,≤ 0.25
23,FQQR,≤ 0.25
24,KMIP,≤ 0.25

row,Variant,enrichment ratio
1,WVNS,≤ 0.25
2,SARP,≤ 0.25
3,FAGK,≤ 0.25
4,RFQK,≤ 0.25
5,LQTI,≤ 0.25
6,YMVI,≤ 0.25
7,ACVT,1.11
8,VVRF,≤ 0.25
9,VMKC,≤ 0.25
10,VGMI,20.4
11,DRNH,≤ 0.25
12,VMHN,≤ 0.25
13,KMEF,≤ 0.25
14,DVNI,≤ 0.25
15,FGMG,0.824
16,QKPA,≤ 0.25
17,KCRD,≤ 0.25
18,LQEA,≤ 0.25
19,LDRV,≤ 0.25
20,WKIC,≤ 0.25
21,GWNH,≤ 0.25
22,LFLM,0.825
23,MLSL,7.3
24,FTAP,≤ 0.25

row,Variant,enrichment ratio
1,PYKI,≤ 0.25
2,HFAN,≤ 0.25
3,TLYH,≤ 0.25
4,MIIQ,≤ 0.25
5,INHI,≤ 0.25
6,NQKY,≤ 0.25
7,LPRW,≤ 0.25
8,LTCN,≤ 0.25
9,YVLL,5.22
10,DIWA,≤ 0.25
11,DCFL,≤ 0.25
12,LQKW,≤ 0.25
13,AYPN,≤ 0.25
14,RDLG,≤ 0.25
15,LEPC,≤ 0.25
16,LLPG,≤ 0.25
17,WLPI,≤ 0.25
18,NQES,≤ 0.25
19,LMWY,≤ 0.25
20,IYMV,≤ 0.25
21,QHLC,≤ 0.25
22,YDVI,≤ 0.25
23,SGQL,12
24,HKCL,3.32

row,Variant,enrichment ratio
1,LSKI,≤ 0.25
2,SKVM,19.7
3,FVMY,≤ 0.25
4,FPRE,≤ 0.25
5,LQAF,≤ 0.25
6,YYWC,≤ 0.25
7,IITN,≤ 0.25
8,IMRK,≤ 0.25
9,AISE,2.44
10,DLMF,≤ 0.25
11,VAMV,3.25
12,HSTW,≤ 0.25
13,GAHF,≤ 0.25
14,TLIK,≤ 0.25
15,GNSN,≤ 0.25
16,PHQM,≤ 0.25
17,ISSP,≤ 0.25
18,PFYK,≤ 0.25
